Data published in PubChem BioAssay AID1347165 (National Center for Advancing Translational Sciences (NCATS), 2019).
Where “and” joins values, the source holds several entries; their conditions need not be identical. Equal values may be shown once. The campaign covered roughly 220,000 compounds. About 5,700 (2.6%) were called active. Inconclusive means that the source gave no clear call. Such entries were picked first, then a sample of the others. Calls follow the shape of the dose curve; as a rule, active = well fitted inhibition curve with a large enough effect; inconclusive = small, poorly fitted or top-dose-only effect; inactive = no such curve, though single readings can be large or run the other way. Potencies of inconclusive entries are doubtful fits and often do not repeat.

These compounds were tested against Lysine-specific demethylase 5B (Homo sapiens) (UniProt Q9UGL1) (assay: Primary screen for KDM5B Histone Demethylases FDH-coupled qHTS). Details: FDH-coupled NADH fluorescence (FDH is formaldehyde dehydrogenase); activity change, negative = inhibition: at 57.7 µM (top of the series) unless noted.
Outline: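 qHTS format, multiple compound concentrations. Buffer 50 mM HEPES pH 7.5/0.01% Tween-20; 200 nM KDM5BΔAP final; 10 min compound preincubation; substrate-mix levels 12.5 µM peptide, 25 µM α-KG, 0.25 mM NAD⁺; 30 min RT; ΔRFU.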
Also: nearly all actives have a fitted effect of over 70% in size.
For activity change, negative = inhibition in this document: 0% is about no effect.
Potency is read from the fitted curve at half-maximal effect; tags tell the direction and shape of the fitted curve.

Chain of UniProt Q9UGL1 (Q9UGL1 whole entry, looked up): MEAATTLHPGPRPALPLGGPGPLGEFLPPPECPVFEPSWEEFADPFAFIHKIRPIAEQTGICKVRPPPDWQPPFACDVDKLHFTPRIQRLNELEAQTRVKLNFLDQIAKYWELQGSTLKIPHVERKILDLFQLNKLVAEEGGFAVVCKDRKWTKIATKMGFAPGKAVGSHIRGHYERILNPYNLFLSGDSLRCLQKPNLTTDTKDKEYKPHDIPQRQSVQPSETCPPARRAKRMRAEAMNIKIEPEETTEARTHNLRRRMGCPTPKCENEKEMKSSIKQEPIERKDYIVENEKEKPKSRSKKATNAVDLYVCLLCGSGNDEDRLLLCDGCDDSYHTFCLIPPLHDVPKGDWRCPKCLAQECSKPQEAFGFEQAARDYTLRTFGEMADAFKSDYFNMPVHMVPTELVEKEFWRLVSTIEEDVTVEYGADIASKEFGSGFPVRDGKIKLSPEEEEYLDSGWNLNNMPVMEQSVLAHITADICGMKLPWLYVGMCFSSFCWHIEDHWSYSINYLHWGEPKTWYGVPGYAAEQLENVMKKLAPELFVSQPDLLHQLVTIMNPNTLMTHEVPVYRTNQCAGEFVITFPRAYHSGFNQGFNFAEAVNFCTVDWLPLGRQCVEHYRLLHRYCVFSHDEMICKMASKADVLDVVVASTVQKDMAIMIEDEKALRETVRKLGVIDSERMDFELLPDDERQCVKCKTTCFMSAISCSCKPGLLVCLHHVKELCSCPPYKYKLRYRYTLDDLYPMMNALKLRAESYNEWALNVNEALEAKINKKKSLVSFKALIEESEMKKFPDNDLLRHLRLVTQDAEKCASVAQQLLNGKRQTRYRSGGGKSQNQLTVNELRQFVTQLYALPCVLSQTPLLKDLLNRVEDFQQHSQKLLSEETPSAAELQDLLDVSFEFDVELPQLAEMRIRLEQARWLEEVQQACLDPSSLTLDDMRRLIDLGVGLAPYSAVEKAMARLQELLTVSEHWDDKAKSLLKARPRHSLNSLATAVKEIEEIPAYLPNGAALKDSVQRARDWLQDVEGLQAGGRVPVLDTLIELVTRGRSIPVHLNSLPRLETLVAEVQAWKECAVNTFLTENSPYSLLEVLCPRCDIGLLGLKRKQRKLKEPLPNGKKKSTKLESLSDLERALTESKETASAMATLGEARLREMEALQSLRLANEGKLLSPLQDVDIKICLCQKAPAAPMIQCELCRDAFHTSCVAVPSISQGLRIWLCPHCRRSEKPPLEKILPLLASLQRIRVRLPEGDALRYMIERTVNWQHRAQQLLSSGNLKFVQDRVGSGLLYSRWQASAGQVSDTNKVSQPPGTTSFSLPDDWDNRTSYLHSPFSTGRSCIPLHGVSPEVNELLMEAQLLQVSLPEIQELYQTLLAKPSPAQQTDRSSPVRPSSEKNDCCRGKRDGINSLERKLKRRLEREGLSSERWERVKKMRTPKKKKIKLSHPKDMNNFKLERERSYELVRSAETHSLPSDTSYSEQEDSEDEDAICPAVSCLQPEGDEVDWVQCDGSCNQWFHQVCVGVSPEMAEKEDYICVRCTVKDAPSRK

Row | SMILES | Potency | activity change, negative = inhibition
1 | CC(C)C1C/C(=N/NC(N)=S)C=C2CCCCC21 (stereo not drawn) | inconclusive: 28.2 µM [inhibitor, partial curve, poor fit] | –
2 | COc1ccccc1Oc1c(CCC(=O)NCc2ccco2)c(C)nn1-c1ccc(F)cc1 | inconclusive: 20 µM [inhibitor, single point] | –
3 | CN1CC(=O)Nc2cc(C(=O)O)ccc21 | inconclusive: 35.5 µM [inhibitor, single point] | –
4 | O=C(Cn1ccn2nc(-c3ccc(F)cc3)c(CO)c2c1=O)NCCc1ccccc1 | inconclusive: 22.4 µM [inhibitor, partial curve, poor fit] | –
5 | C[S+](=O)([O-])N1CCC2(C1)N=C(c1ccccn1)C(=O)N2 (stereo not drawn) | inconclusive: 35.5 µM [inhibitor, single point] | –
6 | O=C(CSc1ncnc2cc(-c3ccc(F)cc3)sc12)NC1CCCC1 | – | inactive: 14.8%
7 | CN1C(=O)C(c2ccccc2)CC12CCN(C(=O)Cc1ccccc1)CC2 (stereo not drawn) | – | inactive: 2.19%
8 | CC(=O)N1CCC(N2CCC[C@H]2c2nc(-c3ccc(N4CCC(C(N)=O)CC4)nc3)no2)CC1 | inconclusive: 35.5 µM [inhibitor, partial curve, poor fit] | –
9 | c1cn(-c2ccc3cn[nH]c3c2)c(-c2cc3n(n2)CCCNC3)n1 | – | inactive: -10.1%
10 | COc1ccc(C(=O)Nc2nc3n(n2)C(c2ccc(Cl)cc2)C=C(c2ccccc2)N3)cc1OC (stereo not drawn) | inconclusive: 28.2 µM [inhibitor, partial curve, poor fit] | –
11 | Cc1nc(S/C(=C/c2ccc(-c3cc(Cl)ccc3C)o2)C(=O)O)n[nH]1 | inconclusive: 8.91 µM [inhibitor, partial curve, poor fit] | –
12 | Cc1ccc(Nc2sc(C(=O)c3ccc(F)cc3)c(N)c2S(=O)(=O)c2ccc(C)cc2)cc1 | inconclusive: 15.8 µM [inhibitor, partial curve, poor fit] | –
13 | Cc1ccc(S(=O)(=O)c2nnn3c2nc(N2CCOCC2)c2sccc23)cc1C | inconclusive: 39.8 µM [inhibitor, single point] | –
14 | CCOc1ccccc1NC(=O)Cn1c(=O)n(Cc2cccs2)c(=O)c2cccnc21 | inconclusive: 39.8 µM [inhibitor, single point] | –
15 | C=CCNC(=O)C(C)N1CCN(c2oc(-c3ccco3)nc2C#N)CC1 (stereo not drawn) | inconclusive: 28.2 µM [inhibitor, partial curve, poor fit] | –
16 | COc1ccc(C(=O)N2CCC(n3c(C)cnc3-c3ccccc3)CC2)c(OC)c1 | – | inactive: -3.73%
17 | COc1cccc(C(=O)N2CCCN(c3cc(-c4ccc(Cl)cc4)[nH]n3)CC2)c1OC | inconclusive: 10 µM [inhibitor, partial curve, poor fit] | –
18 | Cc1ccc(NC(=O)c2sc3nc(-c4ccc(C)cc4)ccc3c2N)cc1 | inconclusive: 20 µM [inhibitor, partial curve, poor fit] | –
19 | Cc1noc(C)c1CC(=O)NC1CCCc2c1[nH]c1c(Cl)cccc21 (stereo not drawn) | – | inactive: -18.5%
20 | CC(=O)Nc1cc(F)ccc1-c1csc(NC(=O)CCc2ccccc2)n1 | – | inactive: -18.9%
21 | O=[S+]([O-])(c1cccc(C(F)(F)F)c1)N1CCN(c2nc3ncccc3o2)CC1 | – | inactive: -28.1%

Row | SMILES | Potency | activity change, negative = inhibition
22 | O=C1COc2cc(S(=O)(=O)CCC(=O)N3CCN(Cc4ccccc4)CC3)c(Cl)cc2N1 | – | inactive: 12.3%
23 | CN1Cc2ccc(Nc3ccccc3)nc2C(C)(C(=O)NCCc2ccccn2)C1 (stereo not drawn) | inconclusive: 22.4 µM [inhibitor, partial curve, poor fit] | –
24 | CC1CN(CCOc2ccc(C#N)cc2)CCO1 (stereo not drawn) | – | inactive: 1.52%
25 | CCCS(=O)(=O)Nc1cc(-c2cn3ccc(C)cc3n2)ccc1C | inconclusive: 14.1 µM [inhibitor, partial curve, poor fit] | –
26 | O=C(Nc1ccc2nc(SCC(=O)N3CCCc4ccccc43)sc2c1)c1ccc(Cl)cc1 | inconclusive: 10 µM [inhibitor, partial curve, poor fit] | –
27 | CCCCCNc1ncnc2c1CN(c1ccccc1)C(=O)N(C)C2 | inconclusive: 28.2 µM [inhibitor, partial curve, poor fit] | –
28 | Cc1nnc(NC(=O)c2csc(NC3CCCC3)n2)s1 | inconclusive: 25.1 µM [inhibitor, partial curve, poor fit] | –
29 | CCN(CC)CCCC(C)NCC1CC2C=CC1C2 (stereo not drawn) | inconclusive: 12.6 µM [inhibitor, partial curve, poor fit] | –
30 | Cc1ccc(CSC2=Nc3ccccc3C3=NC(CC(=O)NCc4ccc5c(c4)OCO5)C(=O)N23)cc1 (stereo not drawn) | inconclusive: 31.6 µM [inhibitor, single point] | –
31 | CN1CCN(CCNC(=O)Cc2ccc(C(F)(F)F)cc2)CC1 | – | inactive: 13.3%
32 | N#Cc1nc(-c2ccco2)oc1N1CCC(C(=O)Nc2ccccc2N2CCCC2=O)CC1 | inconclusive: 22.4 µM [inhibitor, partial curve, poor fit] | –
33 | COc1cc(OC)c(NC(=O)c2ccc3c(c2)N(Cc2ccc(C)cc2)CCS3)cc1Cl | inconclusive: 28.2 µM [inhibitor, partial curve, poor fit] | –
34 | O=C(Nc1cccc(Cl)c1)c1cc(N=Nc2ccc([N+](=O)[O-])cc2Cl)ccc1O | inconclusive: 22.4 µM [inhibitor, single point] | –
35 | CCCCCNC(=O)Cc1csc2nc(C)c(-c3cc(C)n(-c4cc(F)ccc4C)n3)c(=O)n12 | active: 25.1 µM | –
36 | COc1ccc(NC(=O)N[C@@H]2C=C[C@@H](c3c(C)nn(CCC#N)c3C)C2)cc1 | inconclusive: 39.8 µM [inhibitor, partial curve, poor fit] | –
37 | CCc1ccc(C(=O)c2cn(CC(=O)Nc3ccc4c(c3)OCO4)c3ccc(F)cc3c2=O)cc1 | – | inconclusive: -36.9% [inhibitor]
38 | O=C1NCCCCCN(C(=O)C2CC2)[C@H]2CCCC[C@@H]12 | – | inactive: 14.1%
39 | O=C(Nc1nccs1)c1cc(-c2ccc(F)cc2)nc2ccccc12 | inconclusive: 39.8 µM [inhibitor, single point] | –
40 | O=C(NCc1nnc2ccc(-c3ccc(Cl)cc3)nn12)c1cc(F)ccc1Cl | active: 15.8 µM | –
41 | COc1cc(C#N)ccc1OC(=O)Cc1coc2ccc3ccccc3c12 | inconclusive: 39.8 µM [inhibitor, single point] | –
42 | O=C(NC(=S)NNC(=O)[C@H]1C[C@@H]1c1ccccc1)c1ccc(-c2ccccc2)cc1 | – | inactive: -30.8%

Row | SMILES | Potency | activity change, negative = inhibition
43 | Cc1cc(=O)oc2cc(OCC(=O)N3CCN(C(=O)C4COc5ccccc5O4)CC3)ccc12 (stereo not drawn) | inconclusive: 28.2 µM [inhibitor, partial curve, poor fit] | –
44 | CC(C)OCCCNc1nc2c([S+](=O)([O-])c3ccncc3)nnn2c2ccccc12 | inconclusive: 56.2 µM [inhibitor, partial curve, poor fit] | –
45 | COc1ccc(CNC(=O)Cn2c(N3CCc4ccccc4C3)nc(C)cc2=O)cc1 | inconclusive: 25.1 µM [inhibitor, partial curve] | –
46 | O=C(C1CC12CCCC2)N1CCc2onc(-c3cccc(F)c3)c2C1 (stereo not drawn) | – | inactive: -12.4%
47 | Cc1cc(=O)oc2cc(OCCSCCN3CCCC3)ccc12 | inconclusive: 22.4 µM [inhibitor, partial curve, poor fit] | –
48 | CC(C)(C)OC(=O)NC1CCCN(Cc2cccs2)C1 (stereo not drawn) | – | inactive: 15.8%
49 | Cc1cccc(N2CCn3c2nc2c3c(=O)n(C/C=C/c3ccccc3)c(=O)n2C)c1 | inconclusive: 22.4 µM [inhibitor, partial curve, poor fit] | –
50 | CC(C)NC(=O)N1CCC2(CC1)C(=O)NCN2C(=O)Cc1c[nH]c2ccccc12 | inconclusive: 56.2 µM [inhibitor, partial curve, poor fit] | –
51 | Cc1cc(NCc2ccccn2)n2ncc(-c3ccc(Cl)cc3)c2n1 | inconclusive: 28.2 µM [inhibitor, partial curve, poor fit] | –
52 | CCN(Cc1ccccc1)Cc1c(O)ccc2oc(C)c(C(=O)Nc3ccc(C)cc3C)c12 | inconclusive: 31.6 µM [inhibitor, partial curve, poor fit] | –
53 | O=C(C1CC1)N(Cc1ccc2c(c1)CN(S(=O)(=O)c1ccc(F)c(F)c1)CCO2)c1ccccc1 | – | inactive: -14.6%
54 | Cc1cc(NC(=O)CNc2cc(S(=O)(=O)N3CCCCC3)ccc2Oc2ccccc2)no1 | – | inactive: 6.33%
55 | O=C(NCc1cccnc1)c1nc(-c2ccc(F)cc2)c2ccccn12 | active: 28.2 µM | –
56 | Cc1ccc(Nc2nc(-c3ccc4[nH]c(=O)oc4c3)cs2)cc1F | – | inactive: -16.8%
57 | CCc1cc2c(CN(C)Cc3ccccc3F)cc(=O)oc2cc1O | inconclusive: 28.2 µM [inhibitor, partial curve, poor fit] | –
58 | CC(C)CCNC(=O)Cn1c(-c2cccs2)cc2cc(F)ccc21 | inconclusive: 31.6 µM [inhibitor, partial curve, poor fit] | –
59 | COc1ccc(NC(=O)c2cc(NC(=O)C3CCC3)cc3nc(C)ccc23)cc1 | active: 25.1 µM | –
60 | CN(C)CCCNc1nc(-c2ccccc2)c2c(c1C#N)CC(C)(C)OC2 | inconclusive: 28.2 µM [inhibitor, partial curve, poor fit] | –
61 | CCN1CCN(c2ccc(C(=O)N3CCCC(c4ccccc4)CC3)cn2)CC1 (stereo not drawn) | inconclusive: 31.6 µM [inhibitor, single point] | –
62 | CCOc1ccc(C(CC(=O)Nc2ccc(CC)cc2)N2Cc3ccccc3C2=O)cc1OC (stereo not drawn) | – | inactive: 4.28%
63 | Cc1ccc(/C(COc2ccc3c(C)c(Cc4ccccc4)c(=O)oc3c2)=N/O)cc1 | inconclusive: 35.5 µM [inhibitor, partial curve, poor fit] and inconclusive: 39.8 µM [inhibitor, single point] | –
